# Laboratory results as given in the BET-seq Pho4 binding data (Le et al. 2018).
# The list shows a part of the results. These are noisy estimates, calculated here from bound and input reads.
# Molecular target: T1, Pho4 (S. cerevisiae) (UniProt P07270)
# T1 sequence: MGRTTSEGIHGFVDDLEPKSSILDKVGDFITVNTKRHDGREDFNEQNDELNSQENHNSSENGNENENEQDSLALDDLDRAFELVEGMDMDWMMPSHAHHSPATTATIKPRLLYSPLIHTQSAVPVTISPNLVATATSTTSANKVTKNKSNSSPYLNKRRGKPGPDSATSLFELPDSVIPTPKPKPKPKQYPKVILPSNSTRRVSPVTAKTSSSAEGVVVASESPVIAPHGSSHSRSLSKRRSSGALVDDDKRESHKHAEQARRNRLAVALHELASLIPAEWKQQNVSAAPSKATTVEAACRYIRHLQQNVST
# Assay: relative binding free energy (BET-seq); higher = weaker binding
# Details: reference: library average
row,Sequence,relative binding free energy
1,GGATGCACGTGAAATT,0.14 kcal/mol
2,CGGGGCACGTGTGTGT,-0.14 kcal/mol
3,GAGTACACGTGCAGGT,0.23 kcal/mol
4,GGGTTCACGTGATGGT,0.37 kcal/mol
5,GCATGCACGTGTGATG,0.05 kcal/mol
6,TGGGTCACGTGTTGAA,0.11 kcal/mol
7,GCTGTCACGTGTTGGG,0.1 kcal/mol
8,AGTGACACGTGAGTCG,0.23 kcal/mol
9,TAATTCACGTGGTCGG,0.09 kcal/mol
10,GGTGACACGTGTTTGT,0.04 kcal/mol
11,TAGTTCACGTGTATGG,0.28 kcal/mol
12,ACGGACACGTGGTAGG,-0.01 kcal/mol
13,TTTTGCACGTGATGTG,0.11 kcal/mol
14,CTGTACACGTGGTGGC,0.06 kcal/mol
15,TGTGTCACGTGAGGCC,0.25 kcal/mol
16,GATTCCACGTGGTGAT,0.16 kcal/mol
17,TGTCACACGTGAGGAT,0.26 kcal/mol
18,TGATGCACGTGTCCGG,-0.11 kcal/mol
19,AATGTCACGTGCTTTG,-0.04 kcal/mol
20,CGGTACACGTGAATGG,0.29 kcal/mol
21,CTGGTCACGTGGGTGA,0.05 kcal/mol
22,GGTGTCACGTGAATTG,0.24 kcal/mol
23,AATACCACGTGTGGTT,-0.06 kcal/mol

row,Sequence,relative binding free energy
1,TTTGGCACGTGAACAG,0.19 kcal/mol
2,AGGTTCACGTGTCCTT,0.36 kcal/mol
3,TGATACACGTGATATT,0.2 kcal/mol
4,GGGGACACGTGTGGTA,0.16 kcal/mol
5,AGGGGCACGTGTAAGT,0.09 kcal/mol
6,GTGAGCACGTGGTTGT,-0.09 kcal/mol
7,TGGGGCACGTGTTATC,-0.04 kcal/mol
8,CAAGTCACGTGTTTGG,0.15 kcal/mol
9,CGGCCCACGTGGGGTG,-0.24 kcal/mol
10,CGGCGCACGTGGAGGT,-0.16 kcal/mol
11,CGGTGCACGTGGGACG,-0.24 kcal/mol
12,TGGGCCACGTGCCGGA,-0.05 kcal/mol
13,ATTTGCACGTGTTATG,0 kcal/mol
14,AGGATCACGTGTATGT,0.18 kcal/mol
15,GTCTTCACGTGGTTCG,0.34 kcal/mol
16,TGCTTCACGTGTGTCT,0.19 kcal/mol
17,CGATGCACGTGTTTGG,-0.1 kcal/mol
18,GGAGTCACGTGCAGGA,0.18 kcal/mol
19,GTGAGCACGTGCCTGG,-0.06 kcal/mol
20,GTATACACGTGGTCTG,-0.07 kcal/mol
21,GTGTCCACGTGGTTAA,-0.03 kcal/mol
22,TGCGACACGTGCTAGG,0.13 kcal/mol
23,AGTTTCACGTGGTAGG,0.26 kcal/mol

row,Sequence,relative binding free energy
1,ATGTGCACGTGGTTTA,-0.1 kcal/mol
2,TAAGTCACGTGGGTAC,0.02 kcal/mol
3,TAAGTCACGTGTGGGC,0.1 kcal/mol
4,GAAGACACGTGAAGTG,0.33 kcal/mol
5,AGGGCCACGTGGGCGT,-0.42 kcal/mol
6,AATGACACGTGCGGTG,-0.05 kcal/mol
7,TTGACCACGTGAGTGG,0.12 kcal/mol
8,GGTTTCACGTGGTTCT,0.28 kcal/mol
9,TAGTCCACGTGGTGTC,0.06 kcal/mol
10,GTATTCACGTGAGCTG,0.44 kcal/mol
11,ATTAGCACGTGTAGTG,0 kcal/mol
12,TGGAGCACGTGTGAAT,0.2 kcal/mol
13,TGCGTCACGTGCTGGA,0.07 kcal/mol
14,GCTATCACGTGGTTGG,0.12 kcal/mol
15,CTAGGCACGTGTGTGT,-0.12 kcal/mol
16,TGCAGCACGTGGGTTG,-0.12 kcal/mol
17,TATGACACGTGTTGCT,-0.03 kcal/mol
18,TAGAACACGTGTATGT,-0.02 kcal/mol
19,TGGGGCACGTGGCTTA,-0.06 kcal/mol
20,TGTGTCACGTGAGCAA,0.12 kcal/mol
21,GATGACACGTGTTGGT,0.11 kcal/mol
22,GGAGTCACGTGGTGTG,0.07 kcal/mol
23,TTTATCACGTGAAGGC,0.3 kcal/mol

row,Sequence,relative binding free energy
1,ATGAGCACGTGAGGTG,0.07 kcal/mol
2,CGGTACACGTGTATTA,0.07 kcal/mol
3,TTGTGCACGTGGCTCT,-0.08 kcal/mol
4,GTTGTCACGTGCGAAT,0.03 kcal/mol
5,AGGAGCACGTGCAGGT,-0.14 kcal/mol
6,AGTTCCACGTGTATGT,-0.07 kcal/mol
7,CGGGCCACGTGTATGT,-0.12 kcal/mol
8,GGGTTCACGTGGCTTG,0.26 kcal/mol
9,TGAGGCACGTGTGCTA,-0.21 kcal/mol
10,AGGTGCACGTGTTGTA,-0.02 kcal/mol
11,GTTCTCACGTGTTAAG,0.28 kcal/mol
12,TAAGTCACGTGGGATT,0.03 kcal/mol
13,TGATCCACGTGGTTTT,0.02 kcal/mol
14,TGTAGCACGTGTGGCG,-0.03 kcal/mol
15,CGTTTCACGTGGGGTG,0.16 kcal/mol
16,TGAGACACGTGTAAGT,0.15 kcal/mol
17,TTTTACACGTGAAGCG,0.3 kcal/mol
18,TGGTTCACGTGAGCAG,0.37 kcal/mol
19,TTAGGCACGTGTAGAG,0.07 kcal/mol
20,ATCTTCACGTGTGATT,0.36 kcal/mol
21,TGAATCACGTGATCGG,0.17 kcal/mol
22,GGAGTCACGTGCGGTA,0.09 kcal/mol
23,GGAATCACGTGGTGGT,0.19 kcal/mol

row,Sequence,relative binding free energy
1,GAATTCACGTGAATGT,0.31 kcal/mol
2,GCTTACACGTGGGATT,0.11 kcal/mol
3,CTTGTCACGTGTGGCA,0.13 kcal/mol
4,AGTTCCACGTGGAGGG,-0.06 kcal/mol
5,TTAGTCACGTGCACTG,0.13 kcal/mol
6,TGTTACACGTGTCAGC,0.35 kcal/mol
7,GTAAACACGTGGAGTG,-0.08 kcal/mol
8,GGGAGCACGTGATTGA,0.12 kcal/mol
9,TTTTTCACGTGACCGG,0.43 kcal/mol
10,TGCGGCACGTGGTTAA,-0.12 kcal/mol
11,CATAACACGTGTTTGT,-0.14 kcal/mol
12,ACGTTCACGTGGTGGC,0.17 kcal/mol
13,TTGCACACGTGCGGTG,-0.01 kcal/mol
14,TCGTGCACGTGGAGTC,0.09 kcal/mol
15,TTTGACACGTGTTTGT,0.03 kcal/mol
16,TGTGACACGTGTCAGT,-0.03 kcal/mol
17,GCTTTCACGTGGTTGC,0.49 kcal/mol
18,ATCGGCACGTGCTGTT,-0.06 kcal/mol
19,CTTTTCACGTGGTTAT,0.21 kcal/mol
20,AAGTTCACGTGGATGG,0.13 kcal/mol
21,GTGGTCACGTGTTCAG,0.09 kcal/mol
22,TTAGTCACGTGGGCAT,-0.14 kcal/mol
23,ATGTACACGTGTTTTT,0.14 kcal/mol
